{
  "source": "paper PMC7819943",
  "about": "“Rice protein-binding microarrays: a tool to detect cis-acting elements near promoter regions in rice”",
  "note": "This is one part of the list.",
  "data": [
    {"biological_target": "T1, OsWOX13 (Oryza sativa, UniProt Q5QMM3 1-267)", "T1 sequence": "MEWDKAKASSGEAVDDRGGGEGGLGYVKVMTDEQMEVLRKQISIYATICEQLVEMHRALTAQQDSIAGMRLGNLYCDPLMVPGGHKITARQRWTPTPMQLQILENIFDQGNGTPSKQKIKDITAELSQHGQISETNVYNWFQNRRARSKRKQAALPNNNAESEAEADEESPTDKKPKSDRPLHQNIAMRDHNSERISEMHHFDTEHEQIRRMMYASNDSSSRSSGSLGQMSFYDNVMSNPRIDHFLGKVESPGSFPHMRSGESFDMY", "test": "protein-binding microarray (RPBM); PBS, 2% BSA, 51.3 ng/ul salmon testes DNA, 50 uM zinc acetate, 200 nM TF, 25 C, 1 h; high values mean tight binding", "settings": "protein: recombinant; tags: N-terminal polyhistidine and DsRed monomer fusion (pET32a); label: CyDye5-dUTP incorporated in the synthesized complementary strand; 3' TTTTT single-stranded linker to array surface; dsDNA, one strand shown", "how_it_was_run": "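A custom Agilent array was converted to double-stranded form by primer extension with Cy5-dUTP and blocked with 2% BSA. Protein at 200 nM in PBS with 2% BSA, salmon testes DNA and 50 µM zinc acetate was applied for 1 h at 25 °C, followed by washing. The proteins were polyhistidine–DsRed N-terminal fusions of transcription factors, expressed in E. coli BL21-CodonPlus and Ni–NTA-purified. The binding signal is per-feature fluorescence intensity (arbitrary units) from an Axon 4000B scanner.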", "values": [
      {"sequence": "ATCTTTAATTTGCTCATGGCCATTGGGACCCAATCACCCACGGAGTCACCTAGTGCAG", "binding signal": "19900 fluorescence intensity (a.u.)"},
      {"sequence": "AGATAACCGTATCAATCTTAACCCTGTCTTATATTATGGGCGGAGTCACCTAGTGCAG", "binding signal": "5600 fluorescence intensity (a.u.)"},
      {"sequence": "AAAACTACACAATCAACGAATGGGTCCACTTACGAGATGACGGAGTCACCTAGTGCAG", "binding signal": "5180 fluorescence intensity (a.u.)"},
      {"sequence": "CAACAATACAGTTATTGGTAATTACAAGCTACTAGTATACCGGAGTCACCTAGTGCAG", "binding signal": "7790 fluorescence intensity (a.u.)"},
      {"sequence": "TTCTGAAGATTGGTTGAGACAGCATAAACAAGTTATATTCCGGAGTCACCTAGTGCAG", "binding signal": "14500 fluorescence intensity (a.u.)"},
      {"sequence": "TTAATTAGCATCAGCACCATCTAGCCATGTATGCAAACCCCGGAGTCACCTAGTGCAG", "binding signal": "6230 fluorescence intensity (a.u.)"},
      {"sequence": "ATCTCCATGATTTGATAATTAATATAATGCTACAGTAAACCGGAGTCACCTAGTGCAG", "binding signal": "27900 fluorescence intensity (a.u.)"},
      {"sequence": "GTATTAAATTTAAGAAAGCCATTAAGATGATAAGTTGTTGCGGAGTCACCTAGTGCAG", "binding signal": "5080 fluorescence intensity (a.u.)"},
      {"sequence": "CACGCTTATAATTATTTCTTAAACAAATGTTTGGAGGGACCGGAGTCACCTAGTGCAG", "binding signal": "10200 fluorescence intensity (a.u.)"},
      {"sequence": "GAATTTAATATCGGATGTGATTGTAACATATTCTAGTACTCGGAGTCACCTAGTGCAG", "binding signal": "5270 fluorescence intensity (a.u.)"},
      {"sequence": "GTAAACTGATAATGTAATATTGAAGCAATGCTAATCCCTTCGGAGTCACCTAGTGCAG", "binding signal": "8810 fluorescence intensity (a.u.)"},
      {"sequence": "ACCTAATTGGAATTCCCGTTACAATCCAGAACTATTGAATCGGAGTCACCTAGTGCAG", "binding signal": "44000 fluorescence intensity (a.u.)"},
      {"sequence": "TGTCATTGTCCAAAACGTCAATTAAAATGAAACAGGAGGGCGGAGTCACCTAGTGCAG", "binding signal": "3960 fluorescence intensity (a.u.)"},
      {"sequence": "CTTCTTGATTGATTTATACTAACTGCGCACACACTTTATTCGGAGTCACCTAGTGCAG", "binding signal": "55200 fluorescence intensity (a.u.)"},
      {"sequence": "ACATTAACAGAAATTACGTTAAAAGCATCTCAAAATCAACCGGAGTCACCTAGTGCAG", "binding signal": "14600 fluorescence intensity (a.u.)"},
      {"sequence": "AAGAGATAAAATTTGATCCAATCATGCATGCGTTTGGTGGCGGAGTCACCTAGTGCAG", "binding signal": "8400 fluorescence intensity (a.u.)"},
      {"sequence": "GTGCAAATCATTTAAAATCTTGAAGCATGCCTGATCATGCCGGAGTCACCTAGTGCAG", "binding signal": "9160 fluorescence intensity (a.u.)"},
      {"sequence": "CCAACAGTAATTAAATGCAGATAAACAGAGATGAAATGGACGGAGTCACCTAGTGCAG", "binding signal": "10500 fluorescence intensity (a.u.)"},
      {"sequence": "TGAGATTGTGGACTAATGGACCGCTGCTTTGGAAGTTAGTCGGAGTCACCTAGTGCAG", "binding signal": "6590 fluorescence intensity (a.u.)"},
      {"sequence": "AAAATTTATACAATAATCCAAATGGATAGAAATTGAATTCCGGAGTCACCTAGTGCAG", "binding signal": "5680 fluorescence intensity (a.u.)"},
      {"sequence": "CATATGATATTTGCTAATCAATAGCGGACAAGCCATCTCTCGGAGTCACCTAGTGCAG", "binding signal": "6800 fluorescence intensity (a.u.)"},
      {"sequence": "AAGATCAATGATGGATCCAATCATCCAATATACAAACGGACGGAGTCACCTAGTGCAG", "binding signal": "29600 fluorescence intensity (a.u.)"},
      {"sequence": "AATAATGAGATCAATTGGAACTTGCACCATTGTTTATTTTCGGAGTCACCTAGTGCAG", "binding signal": "3920 fluorescence intensity (a.u.)"},
      {"sequence": "ATCTGATGAGATGCATGTAGATATTATACTGACGATTCGTCGGAGTCACCTAGTGCAG", "binding signal": "3550 fluorescence intensity (a.u.)"},
      {"sequence": "CTAAAACTGAACATCTTTAATTACAGCTATTACTCTGTTCCGGAGTCACCTAGTGCAG", "binding signal": "6750 fluorescence intensity (a.u.)"},
      {"sequence": "GCATGACAGCATGTGACAGGGTTTACAAAACTGAACGCCCCGGAGTCACCTAGTGCAG", "binding signal": "14100 fluorescence intensity (a.u.)"},
      {"sequence": "CCATATAGATTGGCATCTTATAGAGCATGAAAGAGAATGCCGGAGTCACCTAGTGCAG", "binding signal": "13500 fluorescence intensity (a.u.)"},
      {"sequence": "AGGATCTAATATCAAATAATTAGAATGGGTGAGGTTTCAACGGAGTCACCTAGTGCAG", "binding signal": "4180 fluorescence intensity (a.u.)"},
      {"sequence": "TTACTAATTGGTGAAATCCCATATTGATAACATATATTCACGGAGTCACCTAGTGCAG", "binding signal": "33100 fluorescence intensity (a.u.)"},
      {"sequence": "AGGTAGTGCTTGATTTATAGTGTTTATGGTGAAGAAATTTCGGAGTCACCTAGTGCAG", "binding signal": "3510 fluorescence intensity (a.u.)"},
      {"sequence": "GTTCACGTTGACTGCATCTGTCACTTGTGCTGGTTTCTGTCGGAGTCACCTAGTGCAG", "binding signal": "4360 fluorescence intensity (a.u.)"},
      {"sequence": "TTCACTTGAATTAATTGATGATGTGTAATGACATGACTAGCGGAGTCACCTAGTGCAG", "binding signal": "26700 fluorescence intensity (a.u.)"},
      {"sequence": "ATAATTGTTTGACCTAATTAGGGAAATGAACAGCAGTAAACGGAGTCACCTAGTGCAG", "binding signal": "34100 fluorescence intensity (a.u.)"},
      {"sequence": "GTATCTAATCAAATTATTGCCATTGCAGGTTCGACTTATGCGGAGTCACCTAGTGCAG", "binding signal": "14200 fluorescence intensity (a.u.)"},
      {"sequence": "TTGGATTGAGGGAGTATAATTCTTAAACCTAGCAATTAGCCGGAGTCACCTAGTGCAG", "binding signal": "11500 fluorescence intensity (a.u.)"},
      {"sequence": "CGAGATTGATTAGGACTCGGAATCGATCGGAGTCGGAGTACGGAGTCACCTAGTGCAG", "binding signal": "54800 fluorescence intensity (a.u.)"},
      {"sequence": "TTTTATCTCACCAATCAATTTAATTTCTTTATTTATTTTCCGGAGTCACCTAGTGCAG", "binding signal": "6870 fluorescence intensity (a.u.)"},
      {"sequence": "CAAAATTGAAGTCTTGACCCTACCAAACTCCGCCATTCTTCGGAGTCACCTAGTGCAG", "binding signal": "8730 fluorescence intensity (a.u.)"},
      {"sequence": "TGTTGGTCCGTCTCCGAGTTGTTTCCCTATTTGGGCCTTCCGGAGTCACCTAGTGCAG", "binding signal": "5110 fluorescence intensity (a.u.)"},
      {"sequence": "TCAATAAATTTGTGTTTTATGTTTCTATTGGTGTTAGTAGCGGAGTCACCTAGTGCAG", "binding signal": "16200 fluorescence intensity (a.u.)"},
      {"sequence": "TTGATTATCCTTCGGCGACTAGCTAACTCTAAATGGAACTCGGAGTCACCTAGTGCAG", "binding signal": "3230 fluorescence intensity (a.u.)"},
      {"sequence": "ACACATAAATTATTAATCATGTTTTATCATCTAACAACAACGGAGTCACCTAGTGCAG", "binding signal": "14100 fluorescence intensity (a.u.)"}
    ]}
  ]
}
